Out of some 52,000 compounds screened, about 1,700 (3.3%) were called active. No stated cut-off is given here; in the data, active means survival mostly below about 52% (no sharp cut-off); inactive means mostly above about 56%. Some of the results follow.

The test system of the assay is Wild type. The assay is described as follows: growth inhibition of S. aureus wild type versus tarO mutant, primary screen, teichoic acid synthesis inhibitors, RN4220, OD600 (AID 463173). The settings on record: S. aureus RN4220 wild type/DeltatarO growth, OD600, 18 h, active compounds read low, screened at 18.75 µg/mL (by protocol).
In the case of `CCOc1ccc(NS(=O)(=O)c2ccc3[nH]cc(C(=O)NCC4CCCO4)c(=O)c3c2)cc1` (stereo not given), the survival was inactive: 88%.

Consider `COC(=O)CN1C(=O)CSc2ccc(S(=O)(=O)Nc3cccc(Cl)c3C)cc21`, for which the survival was inactive: 90%.

`Nc1c(-c2nc(-c3ccc(F)cc3)cs2)c2ccccn2c1C(=O)c1ccc2c(c1)OCO2`: the survival was inactive: 105%.

Consider `CCOc1ccc(N2CC(C(=O)NCc3nnnn3-c3ccc(C)c(C)c3)CC2=O)cc1` (stereo not given), for which the survival is inactive: 65%.

Turning to `CC(=O)c1ccc(N2CCN(C(=O)CCS(=O)(=O)c3ccc4c(c3)oc(=O)n4C)CC2)cc1`, the survival is inactive: 89%.

`COc1ccc(NCc2cc3ccc(OC)cc3n(CC(=O)Nc3cc(Cl)ccc3C)c2=O)cc1`: the survival is inactive: 77%.

As to `CC(=O)Nc1cccc(-c2nc3ccccc3o2)c1`, the survival was inactive: 112%.

Regarding `Cc1cc(=O)n(CC(=O)N2CCN(c3ccc(F)cc3)CC2)c2c1c(C)nn2C`, the survival was inactive: 95%.

Regarding `CC(Oc1ccccc1F)C(=O)Nc1ccc(-c2nc3ccccc3s2)cc1` (stereo not given), the survival is inactive: 115%.

Take `CCSc1ncc(Cl)c(C(=O)Nc2sc3c(c2C(=O)NC)CCCC3)n1`: the survival was inactive: 90%.

`CC1CCc2c(sc(NC(=O)c3cc4nc(-c5ccc(Cl)cc5)cc(C(F)(F)F)n4n3)c2C#N)C1` (stereo not given): the survival was inactive: 69%.

Take `CCc1cccc(NC(=O)CN(C)S(=O)(=O)c2cccc3cccnc23)c1`: the survival is inactive: 70%.

For the compound `CCC1CCCCN1C(=O)c1sc(-n2nc(C)c(Cc3ccccc3)c2C)nc1C` (stereo not given), the survival is inactive: 72%.

As to `COc1ccc(S(=O)(=O)c2cnc(SCC(=O)Nc3cc(F)ccc3C)[nH]c2=O)cc1Cl`, the survival was inactive: 91%.

Consider `CCCCCC1CC(CC(=O)Nc2nncs2)C(=O)O1` (stereo not given), for which the survival was inactive: 116%.

Take `Cc1ccc(Cl)cc1NC(=O)CN1C(=O)C(C)(C)c2cc(S(=O)(=O)N3CCCCC3)ccc21`: the survival was active: 1%.

Take `CC(=O)c1cccc(NC(=O)c2cc3c(s2)-c2c(C)cccc2OC3)c1`: the survival was inactive: 130%.

`CCOC(=O)c1c(S(=O)(=O)NCC(=O)NCc2ccccc2)c(C)n(C)c1C`: the survival was inactive: 87%.

Take `O=C(Nc1cccnc1)C12CC3CC(CC(C3)C1)C2`: the survival is inactive: 98%.

On to `Cc1cccc(-c2nc3c4ccccc4nc(NCc4ccc(F)cc4)n3n2)c1`, for which the survival was inactive: 80%.

Turning to `COc1cccc(OC(=O)CSc2nnc(-c3ccc4c(c3)OCO4)o2)c1`, the survival is inactive: 78%.

As for `O=c1[nH]c2sc3c(c2c(=O)n1-c1ccccc1)CCCC3`, the survival is inactive: 110%.

In the case of `CC(C)CCN(C(=O)Nc1ccc(Cl)c(Cl)c1)C(C)c1cccs1` (stereo not given), the survival was inactive: 136%.

As for `CCOc1ccccc1NC(=O)C(C)N(c1ccccc1)S(C)(=O)=O` (stereo not given), the survival is inactive: 90%.

For the compound `COc1cc(/C=C/c2nc(C#N)c(N3CCC(C)CC3)o2)cc(OC)c1OC`, the survival was inactive: 74%.

As to `CCOC(=O)c1ccc(OC(=O)c2cn(-c3cccc(OC)c3)c(=O)c3ccccc23)cc1`, the survival is inactive: 58%.

As for `CCc1ccc2c(c1)NC(c1ccc(OC)cc1)=NC(c1ccncc1)=N2`, the survival was inactive: 83%.

Take `CSc1ncc(C(=O)N2CCN(c3cccc(C(F)(F)F)c3)CC2)c(C)n1`: the survival is inactive: 73%.

Turning to `COc1ccccc1OCC(=O)Nc1c(C(=O)c2ccc(F)cc2)oc2ccccc12`, the survival is inactive: 66%.

For `Cc1ccc2c(c1)N(CCCC(=O)NCc1cccc(F)c1)C(=O)CO2`, the survival is inactive: 136%.

In the case of `C/C=C/C(=O)Nc1ccc(Cl)c(Cl)c1`, the survival was inactive: 108%.

On to `COc1ccc(NC(=O)C(NC(=O)/C=C\c2ccc3c(c2)OCO3)c2ccccc2)cc1` (stereo not given), for which the survival was inactive: 77%.

Turning to `Cc1ccc(NC(=O)C2CCN(S(=O)(=O)c3cc(-c4noc(C)n4)ccc3C)CC2)c(C)c1`, the survival is inactive: 159%.

Turning to `Cc1cc(NC(=O)c2ccc(NC(=O)C(C)C)cc2)no1`, the survival is inactive: 128%.

Take `O=C(CSc1c2c(nc3cc(Cl)ccc13)CCCC2)NCc1ccccc1Cl`: the survival is inactive: 104%.

Turning to `COc1ccc(C2CC(=O)c3cc(-c4nc(-c5cccc([N+](=O)[O-])c5)cs4)c(=O)n(-c4ccc(OC)cc4)c3C2)cc1` (stereo not given), the survival was inactive: 72%.

On to `COc1ccc(C2N3CC4(C)CN2CC(c2ccccc2)(C3)C4=O)cc1OC` (stereo not given), for which the survival was inactive: 89%.

As to `O=C(NC1CCCC1)C(c1ccc(N2CCOCC2)cc1)N(Cc1ccco1)C(=O)c1ccco1` (stereo not given), the survival is inactive: 103%.

Consider `CCCN(CCC)CCCNC(=O)c1cc2c(=O)[nH]c3ccccc3c2n1C`, for which the survival is inactive: 77%.

In the case of `COc1cccc(-n2c(=O)c3sc4ccccc4c3n(CC(=O)Nc3ccccc3C)c2=O)c1`, the survival is inactive: 95%.

Turning to `COc1ccc(N2CCN(c3csc4ccccc4c3=O)CC2)cc1`, the survival is inactive: 71%.

Consider `CCc1ccc(NC(=O)c2nn(-c3ccc(OC)cc3)c(=O)c3c2c2ccccc2n3C)cc1`, for which the survival is inactive: 92%.

On to `CCCCOc1ccc(Cn2c(=O)sc3ccccc32)cc1`, for which the survival was active: -4%.

Turning to `CCc1ccc(Oc2c(C(F)(F)F)oc3c(CN4CCCC(C)C4)c(O)ccc3c2=O)cc1` (stereo not given), the survival was inactive: 72%.

`Cc1c(C(=O)Nc2ccc(F)cc2F)sc2nc3n(c(=O)c12)N=C(c1ccccc1)CS3`: the survival was inactive: 68%.

On to `CC(Sc1oc(-c2cccs2)nc1S(=O)(=O)c1ccccc1)c1ccccc1` (stereo not given), for which the survival is inactive: 38%.

As to `Cn1nccc1C(=O)NCc1ccc2c(c1)CCN2C(=O)c1ccc(Cl)cc1`, the survival was inactive: 66%.

With `O=C1c2ccccc2-c2onc3c(NCCO)cc(NC4CCCCC4)c1c23`, the survival is inactive: 77%.

Take `COc1ccc(C(CNC(=O)COc2cc(C)cc(C)c2)N2CCOCC2)cc1` (stereo not given): the survival is inactive: 69%.

`CCOC(=O)c1ccccc1NC(=O)CCc1nc(-c2ccc(C)cc2)no1`: the survival was inactive: 27%.

In the case of `CC(CNC(=O)CCS(=O)(=O)c1cc2c(cc1Cl)NC(=O)CO2)c1ccccc1` (stereo not given), the survival is inactive: 55%.

Regarding `Cc1ccc(NC(=O)CSc2nc(=O)cc(N)n2CCc2ccccc2)cc1`, the survival was inactive: 74%.

Regarding `CCc1ccccc1NC(=O)C1CCCN(c2cnccn2)C1` (stereo not given), the survival was inactive: 92%.

Turning to `O=C(Nc1cccc(NC(=O)c2ccccc2Cl)c1)c1cccc(Br)c1`, the survival is inactive: 107%.

For the compound `COc1cccc(C(=O)c2sc(Nc3ccc(F)c(Cl)c3)nc2N)c1`, the survival is inactive: 65%.

With `Cn1c(=O)c2sccc2n2c(CCC(=O)Nc3ccc(F)cc3)nnc12`, the survival was inactive: 67%.

Turning to `Cc1cc(C)cc(NC(=O)C(=O)NCC(c2cccnc2)N2CCc3ccccc32)c1` (stereo not given), the survival is inactive: 76%.

In the case of `CCC1CCCCN1CCCNC(=O)c1ccc2c(c1)sc1nc(-c3ccc(F)cc3)cn12` (stereo not given), the survival was active: 6%.

Turning to `CCOc1ccc(OCC)c(S(=O)(=O)N2CCC(C)CC2)c1`, the survival is inactive: 102%.

`COc1ccc(OC)c(-c2noc(N3CCN(c4cc(Cl)ccc4C)CC3)n2)c1`: the survival was inactive: 134%.

For the compound `Cc1ccc(C)c(NC(=O)CSc2nnc(C)n3c2cc2occc23)c1`, the survival was inactive: 83%.

In the case of `COC(=O)c1ccc(Cl)cc1NC(=O)Nc1nnc(N(C)Cc2ccccc2)s1`, the survival was inactive: 95%.

`COc1ccc(C2c3c(-c4ccccc4O)n[nH]c3C(=O)N2CCc2ccccc2)cc1` (stereo not given): the survival is inactive: 38%.

With `COc1ccccc1NC(=O)CN1CCN(CC(=O)Nc2ccc(F)c(F)c2)CC1`, the survival was inactive: 134%.

Regarding `CCOC(=O)c1ccc(CN(Cc2ccc(Br)cc2)S(=O)(=O)c2cccc(C(F)(F)F)c2)cc1`, the survival is inactive: 72%.

Turning to `COc1ccc2c(c1)c(=O)c(C(=O)c1ccc(C)cc1)cn2Cc1ccccc1F`, the survival is inactive: 88%.

As for `CCC(C(=O)OC)n1nnc2sc(-c3ccccc3)cc2c1=O` (stereo not given), the survival was inactive: 81%.

Regarding `O=C(COc1ccccc1Cl)Nc1ccccc1OCc1cc(=O)n2ccccc2n1`, the survival was inactive: 69%.

Take `Cc1ccc(N2C(=O)CS(=O)(=O)C23C(=O)N(Cc2ccccc2F)c2ccccc23)cc1Cl` (stereo not given): the survival was inactive: 83%.

`CCCCN(CC)CCNc1ncnc2onc(-c3ccc(Cl)cc3)c12`: the survival was inactive: 82%.

With `CCOC(=O)N1CCN(CCC(=O)Nc2cccc(Cl)c2C)CC1`, the survival is inactive: 115%.

With `O=C(CN1C(=O)C2CCCCN2c2ccc(C(=O)N3CCCC3)cc21)NCc1ccccc1F` (stereo not given), the survival is inactive: 73%.

As for `CN(c1ccccc1)C(CNS(=O)(=O)c1ccccc1)c1ccccc1` (stereo not given), the survival was inactive: 89%.

Take `COC(=O)c1sccc1S(=O)(=O)N(CC(=O)NCc1ccc(F)cc1)c1ccc(C)c(C)c1`: the survival was inactive: 76%.

For `Cc1cccc(NC(=O)NC2COc3ccccc3C2)c1C` (stereo not given), the survival is inactive: 73%.

As to `Cc1ccc(CN(Cc2ccco2)C(=O)c2cccc(C)c2)cc1`, the survival is inactive: 98%.

Take `CNS(=O)(=O)c1cn(CC(=O)Nc2cccc(C(F)(F)F)c2)cc1S(=O)(=O)NC`: the survival was inactive: 94%.

For the compound `COc1ccc(Cc2nnc(C(=O)NCCCN3CCN(c4ccccc4F)CC3)o2)cc1OC`, the survival is inactive: 87%.

Take `CC(OC(=O)c1cc2sccc2n1C)C(=O)NCc1cccs1` (stereo not given): the survival was inactive: 108%.

For the compound `CC(C)COc1ccc(Nc2ncnc3ccc(Br)cc23)cc1`, the survival was inactive: 79%.

For `CNS(=O)(=O)c1cn(CC(=O)N2CCN(c3ccc(C)cc3C)CC2)cc1S(=O)(=O)NC`, the survival was inactive: 59%.

As to `O=C(O)CCC(=O)N1N=C(c2ccccc2)CC1c1ccc2nccnc2c1` (stereo not given), the survival is inactive: 99%.

`Cc1cc(S(=O)(=O)n2ccnc2C(C)C)cc([N+](=O)[O-])c1C`: the survival is inactive: 67%.

As for `CCCNc1ccc(-c2nc(-c3ccco3)no2)cc1[N+](=O)[O-]`, the survival was inactive: 86%.

`CCc1ccc(CNC(=O)C(CC)n2nc(C)c3c(C)n(-c4ccccc4)nc3c2=O)cc1` (stereo not given): the survival was inactive: 124%.

`CCOC(=O)c1[nH]c2ccccc2c1NC(=O)c1ccccc1OC`: the survival is inactive: 61%.

For `CN1CCN(C(=O)c2ccccc2C(=O)O)CC1`, the survival is inactive: 115%.

As for `COc1ccc(CNc2nc(-c3ccco3)nn2C(=O)CC(C)C)cc1`, the survival is inactive: 111%.

For the compound `CCOC(=O)c1nc(Nc2ccc(Cl)cc2)c2c(C)noc2n1`, the survival is inactive: 74%.

As to `CC(=O)Nc1ccc(S(=O)(=O)N2CCN(Cc3ccccc3Cl)CC2)cc1`, the survival was inactive: 117%.

These data come from PubChem BioAssay AID463173 (ICCB-Longwood Screening Facility, Harvard Medical School, 2010).
